About 4,300 (8.3%) of roughly 52,000 compounds were called active. Cut-off read from the data, not from the text of the source: active = survival mostly below about 52% (no sharp cut-off); inactive = mostly above about 56%. This is one part of the list.
System: DeltatarO mutant
Assay: S. aureus survival, RN4220 and DeltatarO strains – OD600, teichoic acid synthesis inhibitors, primary screen (AID 463173)
Settings: S. aureus RN4220 wild type/DeltatarO growth, OD600, 18 h, hits give low values, screened at 18.75 µg/mL (by protocol)

Row | SMILES | survival
1 | O=C(Cc1ccccc1)Nc1sc2c(c1C(=O)Nc1ccc(Br)cc1)CCC2 | inactive: 55%
2 | Cc1ccc2oc(C(=O)Nc3cccc(Cl)c3)cc(=O)c2c1 | inactive: 92%
3 | Cc1cc(NC(=O)c2ccc(Cl)c(Cl)c2)ccc1NC(=O)c1ccco1 | inactive: 76%
4 | COc1ccccc1C(=O)Nc1ccccc1OCc1cc(=O)n2ccccc2n1 | inactive: 88%
5 | N#CC(C#N)=C(N)/C(C#N)=C/c1ccco1 | inactive: 85%
6 | [O-]/[N+](Cc1ccccc1F)=N\O | inactive: 97%
7 | CCc1ccc2occ(CC(=O)Nc3ccccc3C(F)(F)F)c2c1 | inactive: 115%
8 | CC(C)c1ccc(Nc2cc(C(=O)NC3CCCCC3)c3ccccc3n2)cc1 | inactive: 90%
9 | CCc1cccc(-n2c(=O)c3cccnc3n2CC(=O)Nc2ccc(F)c(C)c2)c1 | inactive: 80%
10 | COc1ccccc1NC(=O)CSc1nc(-c2ccc(C(C)(C)C)cc2)c(C#N)c(=O)[nH]1 | inactive: 52%
11 | Cc1nc2cc(C(=O)N3CCN(C)CC3)ccc2n1-c1ccccc1 | inactive: 107%
12 | O=C(NCCn1ccc2ccccc21)c1ccc(Cl)cc1 | inactive: 87%
13 | Cc1cc(C)cc(C(=O)Nc2ccccc2N2CCOCC2)c1 | inactive: 80%
14 | CCc1ccccc1OCC(=O)Nc1ccc(S(=O)(=O)Nc2nc(C)cc(C)n2)cc1 | inactive: 75%
15 | CCOc1ccccc1-n1nnc(-c2nsc(NC(=O)c3ccc(C)cc3)n2)c1C | inactive: 77%
16 | CCOc1ccc(C(=O)c2oc3ccccc3c2NC(=O)Cc2coc3ccc(CC)cc23)cc1 | inactive: 72%
17 | Cc1cccc(NC(=O)N2CCC3(CC2)Oc2ccccc2C(=O)N3Cc2ccccc2F)c1C | inactive: 71%
18 | O=C(Cc1ccc(F)cc1)Nc1nnc2n1CCS2 | active: 52%
19 | COc1cccc(C(=O)Nc2c(C(=O)N3CCN(c4ccc(F)cc4)CC3)oc3ccccc23)c1 | inactive: 83%
20 | COc1cc2ccccc2cc1C(=O)Nc1ccc2oc(-c3ccc(F)cc3Cl)nc2c1 | inactive: 59%

Row | SMILES | survival
21 | CCc1ccc(CNC(=O)c2c(C)oc3ncnc(N4CCOCC4)c23)cc1 | inactive: 128%
22 | COc1cc(C(=O)n2nc(C)c(Sc3ccc(Cl)cc3)c2C)cc(OC)c1OC | inactive: 57%
23 | CC(=O)N1CCc2cc(S(=O)(=O)NC(C(=O)Nc3ccc(C)cc3C)C(C)C)ccc21 (stereo not drawn) | inactive: 75%
24 | COc1ccc(NC(=O)C2CCCN(S(=O)(=O)c3ccc(Br)s3)C2)cc1 (stereo not drawn) | inactive: 91%
25 | CCOC(=O)c1c(-c2ccc(C)cc2)csc1NC(=O)c1cc(=O)c2ccc(C)cc2o1 | inactive: 109%
26 | CSc1cccc(Nc2cc(C(=O)NCCCN(C)c3ccccc3)c3ccccc3n2)c1 | inactive: 82%
27 | COc1ccc(NC(=O)Cn2c(=O)n(Cc3nc(-c4ccccc4)no3)c(=O)c3ccccc32)cc1Cl | inactive: 102%
28 | COc1ccc(/C=C/C(=O)Nc2nc3n(n2)C(c2ccc(F)cc2)C=C(c2ccccc2)N3)cc1 (stereo not drawn) | active: 42%
29 | Cc1cc(C)c(NC(=O)Cn2cnc3c(oc4ccccc43)c2=O)c(C)c1 | inactive: 69%
30 | Cc1oc(-c2ccccc2Cl)nc1CSc1nc2ncccc2[nH]1 | inactive: 80%
31 | O=C(NCc1cccc(Cl)c1)c1ccc2nc(N3CCCCC3)sc2c1 | inactive: 79%
32 | COc1ccccc1N1CCN(c2ncnc3onc(-c4cccc(Cl)c4)c23)CC1 | inactive: 74%
33 | CCOC(=O)c1c(C)n(-c2ccccc2)c2ccc(OC(=O)c3cccc(OC)c3OC)cc12 | inactive: 45%
34 | COc1ccc(S(=O)(=O)Nc2c(C)nc3nc(C)[nH]n3c2=O)cc1 | inactive: 74%
35 | CCc1cccc(N2C(=O)CSC23C(=O)Nc2ccccc23)c1 (stereo not drawn) | inactive: 85%
36 | CCN(CC)C(=O)c1ccc(Nc2nnc(-c3ccc(C)c(S(=O)(=O)NC)c3)c3ccccc23)cc1 | inactive: 75%
37 | CCOC(=O)c1c(NC(=O)c2cc(-c3cccc(OC)c3)on2)sc2c1CCCC2 | active: 46%
38 | COc1ccc(CC(=O)NCC(c2cccs2)S(=O)(=O)c2ccc(C)cc2)cc1 (stereo not drawn) | inactive: 107%
39 | COc1cccc(CNC(=O)Cc2c(C(=O)O)c(C)cn2C)c1 | active: 8%
40 | CC(C)c1ccc(NC(=O)CN2C(=O)COc3ccc(S(=O)(=O)N4CCCCCC4)cc32)cc1 | inactive: 91%

Row | SMILES | survival
41 | OCCNc1ncnc2ccc(Br)cc12 | inactive: 67%
42 | CCc1ccc(NC(=O)Cn2c(=O)n(Cc3ccco3)c(=O)c3oc4ccccc4c32)cc1 | inactive: 75%
43 | O=C(NCc1cccs1)c1ccc(CSc2nc3cccnc3n2Cc2ccccc2F)cc1 | inactive: 102%
44 | CCCCOc1ccccc1CC1C(=O)Nc2ccc(Br)cc21 (stereo not drawn) | active: 14%
45 | COc1ccc2c(c1)c(N1CCCC1=O)c(C(=O)Nc1ccccc1C(F)(F)F)n2C | inactive: 86%
46 | COc1ccc(C2=C(C)C(=O)N(Cc3ccc(C(=O)NCc4cccc(C)c4)cc3)S2(=O)=O)cc1 | inactive: 86%
47 | COc1ccc(-c2noc(N3CCC(C(=O)N4CCN(c5cccc(C)c5C)CC4)CC3)n2)cc1 | inactive: 83%
48 | COc1ccc(C2=NC(c3ccncc3)=Nc3ccc(OC)cc3N2)cc1 | inactive: 104%
49 | CCOc1ccc(NC(=O)CCNS(=O)(=O)c2cccc3nonc23)cc1 | inactive: 70%
50 | O=C(COc1ccc(F)cc1)Nc1ccc2nc(SCC(=O)N3CCOCC3)sc2c1 | inactive: 82%
51 | COc1ccc(-c2noc(COc3cc(C)ccc3C)n2)cc1OC | active: -5%
52 | O=C1[C@@H]2CSC(c3ccc(Cl)cc3)N2C(=O)N1c1ccccc1 (stereo partly drawn) | inactive: 71%
53 | CC(C)c1ccc(N2C(=O)CSC23C(=O)N(C)c2ccccc23)cc1 (stereo not drawn) | inactive: 75%
54 | CC(C)Oc1ccc(Cc2cnc(=S)[nH]c2N)cc1 | inactive: 93%
55 | CCOC(=O)C1CCCN(C(=O)c2nn(-c3ccc(C)cc3)c(=O)n(C)c2=O)C1 (stereo not drawn) | inactive: 71%
56 | CCc1nnc2c(N3CCN(c4cc(Cl)ccc4C)CC3)nc3ccccc3n12 | active: -5%
57 | COc1ccc(CC(=O)N2CCc3cc(OC)c(OC)cc3C2COc2ccc3c(C)cc(=O)oc3c2)cc1 (stereo not drawn) | inactive: 135%
58 | CCOc1ccc(CNS(=O)(=O)c2ccc3c(c2)CCCN3C(C)=O)cc1OC | inactive: 67%

Source: PubChem BioAssay AID463173 (ICCB-Longwood Screening Facility, Harvard Medical School, 2010)
